PubChem BioAssay AID1745845 (National Center for Advancing Translational Sciences (NCATS), 2022)
Hit rate of the full screen: of about 360,000 compounds, about 2,600 (0.72%) were called active. The inconclusive results got no clear call from the source; some entries with a clear call stand among them for comparison. Calls follow the shape of the dose curve; as a rule, active = well fitted inhibition curve with a large enough effect; inconclusive = small, poorly fitted or top-dose-only effect; inactive = no such curve, though single readings can be large or run the other way. Potencies beside an inconclusive call are fits to weak or partial responses and may not hold up.
% is scaled to controls: 0 for no effect and ±100 for the full control effect; potency is read from the fitted curve at half-maximal effect; tags tell the direction and shape of the fitted curve.

Assay: Primary qHTS for Inhibitors of ATXN expression; also: nearly all actives have a fitted effect of over 55% in size
Settings: HEK-293 ATXN2-luciferase reporter, luminescence, 24 h; activity change, negative = inhibition: at 57 µM (top of the series)
In short: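 ATXN2-luciferase reporter cells (luciferase flanked by upstream and downstream ATXN2 gene portions) were treated 24 h at 37 °C with compounds at up to 57 uM. SteadyGlo luminescence gave expression; GF-AFC fluorescence gave viability.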
In the case of CCCOc1cccc(C(=O)Nc2cc(-c3nc4ccccc4[nH]3)ccc2C)c1, the Potency is reported as inconclusive: 39.8 µM [inhibitor, single point]. For CC1=CC(C)(C)N=C(Nc2nc(C)c3cc(C)cc(C)c3n2)N1, the Potency was inconclusive: 0.238 µM [inhibitor, partial curve, poor fit]. In the case of COc1ccc(Cl)cc1-c1cc(C(=O)Nc2cc(OC)c(OC)c(OC)c2)[nH]n1, the Potency is reported as inconclusive: 31.6 µM [inhibitor, single point]. In the case of COc1cccc(-c2ccc3c(c2)O[C@H](CN(C)C(=O)c2ccccc2F)[C@H](C)CN([C@H](C)CO)S3(=O)=O)c1, the Potency is reported as inconclusive: 39.8 µM [inhibitor, single point]. In the case of Cc1cccc(-n2ncc3c(N4CCOCC4)ncnc32)c1, the Potency is reported as active: 10 µM. For Cc1ccc(N(CCC(=O)O)S(=O)(=O)c2ccccc2)cc1, the “activity change, negative = inhibition” value was inactive: -3.81%. In the case of O=C(O)c1ccc(COc2ccc3c4c(c(=O)oc3c2)CCC4)o1, the Potency is reported as inconclusive: 39.8 µM [inhibitor, single point]. For O=C(NC1CCCC1)c1ccc(CSc2nc3cccnc3n2Cc2cccc(F)c2)cc1, the Potency was inconclusive: 17.8 µM [inhibitor, single point]. For C=CCC[C@@H](Cc1ccc(F)cc1)C(=O)OC[C@@H](Cc1c[nH]c2ccccc12)NC(=O)[C@H](CC=C)CC(=O)N(CCO)Cc1ccccc1, the Potency was inconclusive: 39.8 µM [inhibitor, single point]. With CCCNC(=O)C/C(C)=N/NC(=O)C(=O)Nc1ccccn1 the Potency was inconclusive: 1.68 µM [inhibitor, partial curve, poor fit]. For CCCCc1c(-c2cccc(Cl)c2)ncn1CCc1ccccc1OC, the Potency was inconclusive: 17.8 µM [inhibitor, partial curve, poor fit]. In the case of Cc1nc2ccn(Cc3cccnc3)c(=O)c2cc1C(=O)NCc1ccccc1, the Potency is reported as inconclusive: 3.98 µM [inhibitor, full curve]. With COC(=O)C12OCC34C(CC5C(C)=C(O)C(=O)CC5(C)C3C(O)C1O)OC(=O)C(OC(=O)C=C(C)C)C24 (configuration not stated) the Potency was inconclusive: 0.0075 µM [inhibitor, full curve]. For CCn1c(O)c(N=NC(=O)c2cccc(S(=O)(=O)N3CCCCC3)c2)c2ccccc21, the Potency was inconclusive: 31.6 µM [inhibitor, single point]. With O=C(Nc1ccc(C(F)(F)F)cc1)c1cnc(N2CCN(c3ccccn3)CC2)c2ccccc12 the Potency was inconclusive: 21.2 µM [inhibitor, partial curve, poor fit]. In the case of O=C(NCC1CCCO1)c1cc2c([nH]c3ccccc32)c(-c2cccc(Br)c2)n1 (configuration not stated), the Potency is reported as inconclusive: 22.4 µM [inhibitor, single point]. For CCOC(=O)[C@@H]1[C@H]2COc3ccc(Br)cc3[C@H]2N2C(=O)N(c3ccc(OC)cc3)C(=O)[C@]12C, the “activity change, negative = inhibition” value was inactive: -6.5%. For COc1ccc(Nc2nc(C(=O)N3CCc4cc(OC)c(OC)cc4C3)cs2)cc1, the Potency was inconclusive: 31.6 µM [inhibitor, partial curve]. For Cn1nnnc1SCCCNCc1cc(Br)ccc1OCc1ccccc1, the “activity change, negative = inhibition” value was inactive: -38.1%. For CC(C)CCNC(=O)C(c1ccncc1)N(Cc1cccs1)C(=O)Cn1nnc(-c2ccc(F)cc2)n1 (configuration not stated), the Potency was inconclusive: 31.6 µM [inhibitor, single point]. In the case of Cc1cc(OC(F)F)ccc1NC(=S)NC1CCCC1, the “activity change, negative = inhibition” value is reported as inactive: 4.25%. In the case of O=C(N/N=C\c1ccc(-c2ccc([N+](=O)[O-])cc2)o1)c1ccc2c(c1)OCO2, the “activity change, negative = inhibition” value is reported as inactive: -4.88%. With CN1CCN(c2nc(-c3ccc(Cl)s3)cs2)CC1 the “activity change, negative = inhibition” value was inactive: 13.4%. For COc1cc(CN2CCN(c3cccc(Cl)c3)CC2)cc(OC)c1OC, the Potency was inconclusive: 10 µM [inhibitor, partial curve, poor fit]. For COc1cccc2cc(-c3nnc(-c4ccccc4)o3)c(=O)oc12, the Potency was inconclusive: 8.91 µM [inhibitor, partial curve, poor fit]. In the case of Cc1ccc(-n2c(=O)c3oc4ccccc4c3n(Cc3ccccc3)c2=O)cc1C, the “activity change, negative = inhibition” value is reported as inactive: -6.21%. For CN(Cc1ccccc1F)C(=O)c1ccccc1Sc1ccccc1C#N, the “activity change, negative = inhibition” value was inactive: 10.2%. In the case of CCOc1ccc2[nH]c(=O)c(CN(CCO)C(=O)c3ccc(Br)cc3)cc2c1, the “activity change, negative = inhibition” value is reported as inactive: -5.38%. With O=C(Cn1c(-c2cccs2)cc2ccccc21)NCCCN1CCN(c2cccc(Cl)c2)CC1 the Potency was inconclusive: 39.8 µM [inhibitor, single point]. With Cc1ccc(NC(=O)CCCCCN2C(=O)c3ccccc3C2=O)nc1 the Potency was inconclusive: 22.4 µM [inhibitor, single point]. In the case of O=C(NCCCSc1ccccc1)c1cnc(Cl)c(Cl)c1, the “activity change, negative = inhibition” value is reported as inactive: -13.7%. With O=c1c(Cl)c(Cl)cnn1Cc1nnc(-c2ccccc2Br)o1 the Potency was inconclusive: 39.8 µM [inhibitor, single point]. With CC(=O)c1cccc(NC(=O)C2CCCN(S(=O)(=O)c3ccc(F)cc3)C2)c1 (configuration not stated) the “activity change, negative = inhibition” value was inactive: -3.33%. In the case of COc1ccccc1Sc1ccccc1/C=N/NC(N)=O, the Potency is reported as inconclusive: 22.4 µM [inhibitor, partial curve, poor fit]. With Cn1c(CCCOc2ccc(Cl)cc2Cl)nnc1SCC(=O)Nc1nccs1 the “activity change, negative = inhibition” value was inactive: -0.919%. In the case of C/C(=N\NC(=O)c1cc(C(C)C)[nH]n1)c1ccco1, the Potency is reported as inconclusive: 22.4 µM [inhibitor, partial curve, poor fit]. In the case of COc1ccccc1CNC(=O)c1cc(S(=O)(=O)N2CCCC2)cn1C, the “activity change, negative = inhibition” value is reported as inactive: 0.688%. With O=C(NC(Nc1nc2ccc([N+](=O)[O-])cc2s1)(C(F)(F)F)C(F)(F)F)c1cccnc1 the Potency was inconclusive: 3.55 µM [inhibitor, full curve]. With Cc1ccc(C(=O)N2CC(=O)Nc3ccc(Br)cc3C2c2ccc(F)cc2)cc1C (configuration not stated) the Potency was inconclusive: 39.8 µM [inhibitor, single point]. For COc1ccc(-c2cc(NC=O)c3ncc(-c4cccc(C(=O)N(C)C)c4)n3c2)c(OC)c1, the Potency was inconclusive: 28.2 µM [inhibitor, partial curve, poor fit]. For Cc1nc(NCCNC(=O)c2ccco2)c2c(C)c(C)sc2n1, the “activity change, negative = inhibition” value was inactive: -8.75%. For O=C(NC(=S)N1CCN(Cc2ccc3c(c2)OCO3)CC1)c1cccc(Br)c1, the Potency was inconclusive: 35.5 µM [inhibitor, partial curve, poor fit].
